Consider one substance from patent US20100099731A1, “Use of Endothelial Interrupters in the Treatment of Neurodegenerative Diseases” (Texas Tech University System, priority 2008, published 2010).

In this series the test system is cerebral cortical cultures or differentiated PCl2 cells. Briefly: Thrombin-evoked apoptosis and necrosis in neuronal cultures.
The mark [1] stands for this setting: apoptosis and necrosis examined in the same well.

In the case of thrombin, under setting [1], the apoptosis result is given as “significant apoptotic effect” and the necrosis entry is “little effect on necrosis”. For the same substance, the nucleosome accumulation result (primary cortical cell cultures and differentiated PCl2 cells, compared with the other mediators tested) was “highest level of nucleosome accumulation”.
